Measured values as given in PubChem BioAssay (Tox21).
Several values for one entry are separate records, joined by “and”; a condition that tells them apart may be missing. Equal values may be shown once. Inconclusive means that the source gave no clear call. Such entries were picked first, then a sample of the others. For some of these results: A potency beside an inconclusive call is a rough fit, not a confirmed value. Where a structure was tested more than once in an assay, its records may differ in their call. Activity calls are given as the source filed them. Unless noted, calls come from the whole dose curve.

How the values were obtained:
[1] = biological target: Peroxisome proliferator-activated receptor gamma (Homo sapiens) (UniProt P37231); experiment: qHTS assay to identify small molecule antagonists of the peroxisome proliferator-activated receptor gamma (PPARg) signaling pathway (AID 743191); conditions: HEK293H PPARg-UAS-bla, beta-lactamase ratio, antagonist, 17 h; ratio activity, negative = inhibition: at 62.6 µM (top of the series) unless noted; note: nearly all actives have a fitted effect of over 30% in size; for ratio activity, negative = inhibition: % is set by controls: 0 for no effect and ±100 for the full control effect
Method in brief: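 GeneBLAzer PPARg UAS-bla HEK293H cells, 5 h post-plating, exposed to compounds 17 h at 37C. LiveBLAzer B/G FRET substrate added for 1 h at room temperature; beta-lactamase reporter read by fluorescence intensity.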

[2] = qHTS assay for small molecule agonists of the antioxidant response element (ARE) signaling pathway (AID 743202; active = well fitted activation curve with a large enough effect in the signal ratio in the repeat runs, not every such curve was filed as active; inconclusive = weak or mixed curves, or effect the other way; inactive = no such curve, though single readings can be large or run the other way; the % refers to the signal ratio; for activation: % is set by controls: 0 for no effect and ±100 for the full control effect); conditions: HepG2 ARE-bla reporter, beta-lactamase FRET, 16 h; activation: at 73.3 µM (top of the series) unless noted
Method in brief: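 Agonist mode reporter screen: HepG2 cells with ARE-controlled beta-lactamase are incubated with test compounds for 16 h at 37 C, and beta-lactamase activity is measured as fluorescence of cleaved B/G FRET substrate.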

[3] = qHTS assay for small molecule activators of the heat shock response signaling pathway (AID 743210; active = well fitted activation curve with a large enough effect in the signal ratio in the repeat runs, with a control signal flat, not every such curve was filed as active; inconclusive = weak or mixed curves; the % refers to the signal ratio;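 for activation: HeLa cells with beta-lactamase reporter driven by heat shock elements; % is set by controls: 0 for no effect and ±100 for the full control effect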); conditions: HeLa HSE-bla reporter, beta-lactamase ratio, 5 h; activation: at 62.6 µM (top of the series)
Method in brief: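 Quantitative high-throughput format using an engineered HeLa line in which heat shock response elements drive beta-lactamase; after 5 h with compound, cells received a B/G FRET substrate and fluorescence was read.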

[4] = biological target: Peroxisome proliferator-activated receptor delta (Homo sapiens) (UniProt Q03181); experiment: qHTS assay to identify small molecule agonists of the peroxisome proliferator-activated receptor delta (PPARd) signaling pathway (AID 743212); conditions: HEK293H PPARd-UAS-bla, beta-lactamase FRET ratio, 17 h; activation: at 62.6 µM (top of the series) unless noted; for activation: % is set by controls: 0 for no effect and ±100 for the full control effect
Method in brief: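 Quantitative high-throughput agonist screen in a HEK293H beta-lactamase reporter line under UAS control. Compounds in DMSO, at 37 C. Fluorescence read after 2 h with FRET substrate at room temperature.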

[5] = qHTS assay to identify small molecule antagonists of the peroxisome proliferator-activated receptor delta (PPARd) signaling pathway - cell viability counter screen (AID 743213; active = well fitted curve in the direction sought with a large enough effect in the repeat runs; inconclusive = weak or mixed curves; inactive = no such curve, though single readings can be large; an effect the other way counts as inactive or inconclusive; note: nearly all actives have a fitted effect of over 50% in size); conditions: PPARd-bla HEK293H viability, CellTiter-Glo luminescence, 17 h; viability change, negative = cytotoxic: at 62 µM (top of the series) unless noted
Method in brief: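 In this counter screen, HEK293H cells carrying a UAS-beta-lactamase reporter are co-treated with test compounds and 300 nM L165041 (final) for 17 h at 37 C; cell viability is quantified by CellTiter-Glo luminescence.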

[6] = qHTS assay for small molecule agonists of the antioxidant response element (ARE) signaling pathway - cell viability counter screen (AID 743203); note: nearly all actives have a fitted effect of over 55% in size
Method in brief: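 Following 16 hrs of compound treatment at 37C, HepG2 cells with an ARE-controlled beta-lactamase gene were lysed with CellTiter-Glo. Luminescence was read after 30 min at room temperature.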

[7] = qHTS assay to identify small molecule agonists of the vitamin D receptor (VDR) signaling pathway - cell viability counter screen (AID 743224; active = well fitted curve in the direction sought with a large enough effect in the repeat runs; inconclusive = weak or mixed curves; inactive = no such curve, though single readings can be large; an effect the other way counts as inactive or inconclusive; note: nearly all actives have a fitted effect of over 50% in size)
Method in brief: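 Plated VDR-bla cells (4 h, 37C) received compound, incubated 16 h, then LiveBLAzer substrate 2 h RT; CellTiter-Glo added afterwards, luminescence read at 30 min.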

[8] = qHTS assay for small molecule activators of the heat shock response signaling pathway - cell viability counter screen (AID 743209; active = well fitted curve in the direction sought with a large enough effect in the repeat runs; inconclusive = weak or mixed curves; inactive = no such curve, though single readings can be large; an effect the other way counts as inactive or inconclusive; note: nearly all actives have a fitted effect of over 50% in size); conditions: HSE-bla HeLa viability, CellTiter-Glo luminescence, 5 h; activity change, negative = cytotoxicity: at 62.6 µM (top of the series) unless noted
Method in brief: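 Readout: CellTiter-Glo luminescence, 30 min at room temperature. System: HSE-bla HeLa cells, 1500/well, plated overnight. Treatment: compounds in DMSO, 5 h at 37 C.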

[9] = biological target: Peroxisome proliferator-activated receptor delta (Homo sapiens) (UniProt Q03181); experiment: qHTS assay to identify small molecule antagonists of the peroxisome proliferator-activated receptor delta (PPARd) signaling pathway (AID 743215; active = well fitted inhibition curve with a large enough effect in the signal ratio in the repeat runs, not every such curve was filed as active; inconclusive = weak or mixed curves, or effect the other way; inactive = no such curve, though single readings can be large or run the other way; the % refers to the signal ratio;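 note: cells stimulated with agonist L165041 at 300 nM final during compound exposure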); conditions: HEK293H PPARd-UAS-bla, beta-lactamase FRET ratio, antagonist, 17 h; ratio activity, negative = inhibition: at 62 µM (top of the series) unless noted
Method in brief: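 HEK293H UAS-bla, PPARd; agonist L165041 300 nM final with cpd in DMSO; 37 C 17 h; FRET substrate, RT 2 h; fluorescence intensity.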

[10] = biological target: Vitamin D3 receptor (Homo sapiens) (UniProt P11473); experiment: qHTS assay to identify small molecule antagonists of the vitamin D receptor (VDR) signaling pathway (AID 743223; active = well fitted inhibition curve with a large enough effect in the signal ratio in the repeat runs, not every such curve was filed as active; inconclusive = weak or mixed curves, or effect the other way; inactive = no such curve, though single readings can be large or run the other way; the % refers to the signal ratio); conditions: VDR-UAS-bla HEK293T, beta-lactamase FRET ratio, 16 h
Method in brief: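 Agonist 1alpha,25-dihydroxyvitamin D3 (3 nM in well) was added with each compound to VDR-bla cells preincubated 4 h. Cells stood 16 h at 37C, then FRET substrate 2 h at room temperature; fluorescence intensity recorded.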

[11] = qHTS assay to identify small molecule agonists of the peroxisome proliferator-activated receptor delta (PPARd) signaling pathway - cell viability counter screen (AID 743211; active = well fitted curve in the direction sought with a large enough effect in the repeat runs; inconclusive = weak or mixed curves; inactive = no such curve, though single readings can be large; an effect the other way counts as inactive or inconclusive; note: nearly all actives have a fitted effect of over 55% in size); conditions: PPARd-bla HEK293H viability, CellTiter-Glo luminescence, 17 h; activity change, negative = cytotoxicity: at 62.6 µM (top of the series) unless noted
Method in brief: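 Luminescent ATP viability assay (CellTiter-Glo, 30 min RT) in UAS-bla HEK293H cells carrying the PPAR delta reporter construct, 3000 cells/well, after a 17 h compound treatment at 37 C.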

[12] = biological target: Bile acid receptor (Homo sapiens) (UniProt Q96RI1); experiment: qHTS assay to identify small molecule antagonists of the farnesoid-X-receptor (FXR) signaling pathway (AID 743217; active = well fitted inhibition curve with a large enough effect in the signal ratio in the repeat runs, not every such curve was filed as active; inconclusive = weak or mixed curves, or effect the other way; inactive = no such curve, though single readings can be large or run the other way; the % refers to the signal ratio); conditions: HEK293T FXR-UAS-bla, beta-lactamase ratio, CDCA-stimulated, 16 h; activity change, negative = inhibition: at 62.6 µM (top of the series) unless noted
Method in brief: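 GeneBLAzer FXR-UAS-bla HEK 293T, CDCA-stimulated (50 uM final). Compound treatment 16 h, 37 °C. Detection: beta-lactamase cleavage of B/G FRET substrate, fluorescence.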

[13] = qHTS assay to identify small molecule agonists of the farnesoid-X-receptor (FXR) signaling pathway - cell viability counter screen (AID 743218; active = well fitted curve in the direction sought with a large enough effect in the repeat runs; inconclusive = weak or mixed curves; inactive = no such curve, though single readings can be large; an effect the other way counts as inactive or inconclusive; note: nearly all actives have a fitted effect of over 45% in size); conditions: FXR-bla HEK293T viability, CellTiter-Glo luminescence, 16 h; viability change, negative = cytotoxic: at 62.6 µM (top of the series) unless noted
Method in brief: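 Parallel cytotoxicity test: compound-treated (16 h, 37 C) HEK 293T FXR-bla reporter cells were lysed with CellTiter-Glo and luminescence recorded.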

[14] = biological target: Bile acid receptor (Homo sapiens) (UniProt Q96RI1); experiment: qHTS assay to identify small molecule agonists of the farnesoid-X-receptor (FXR) signaling pathway (AID 743220; active = well fitted activation curve with a large enough effect in the signal ratio in the repeat runs, not every such curve was filed as active; inconclusive = weak or mixed curves, or effect the other way; the % refers to the signal ratio); conditions: HEK293T FXR-UAS-bla, beta-lactamase FRET ratio, 16 h; activation: at 62.6 µM (top of the series) unless noted
Method in brief: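 Beta-lactamase reporter under UAS control in GeneBLAzer FXR HEK 293T cells (5000/well) measured with LiveBLAzer FRET substrate after 2 h at room temperature. Compound exposure lasted 16 h at 37C.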

[15] = qHTS assay to identify small molecule antagonists of the farnesoid-X-receptor (FXR) signaling pathway - cell viability counter screen (AID 743221; active = well fitted cell-killing curve with a large enough effect in the repeat runs, not every such curve was filed as active; inconclusive = weak or mixed curves, or effect the other way; inactive = no such curve, though single readings can be large or run the other way; note: nearly all actives have a fitted effect of over 50% in size); conditions: FXR-bla HEK293T viability, CellTiter-Glo luminescence, 16 h; activity change, negative = cytotoxicity: at 62.6 µM (top of the series) unless noted
Method in brief: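 In GeneBLAzer FXR-UAS-bla HEK 293T cells stimulated with 50 uM chenodeoxycholic acid (final), compounds acted for 16 h at 37 C. Viability was assessed afterwards by CellTiter-Glo luminescence.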

[16] = qHTS assay to identify small molecule antagonists of the vitamin D receptor (VDR) signaling pathway - cell viability counter screen (AID 743225; active = well fitted curve in the direction sought with a large enough effect in the repeat runs; inconclusive = weak or mixed curves; inactive = no such curve, though single readings can be large; an effect the other way counts as inactive or inconclusive; note: nearly all actives have a fitted effect of over 50% in size); conditions: VDR-bla HEK293T viability, CellTiter-Glo luminescence, 16 h; viability change, negative = cytotoxic: at 61 µM (top of the series) unless noted
Method in brief: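 Luminescent cell viability (CellTiter-Glo) in VDR-bla HEK 293T cells after 16 h compound exposure at 37C in the presence of 3 nM final 1-alpha,25-dihydroxy vitamin D3.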

[17] = activity change, negative = inhibition: at 61 µM (top of the series) unless noted
Potency is the fitted concentration of half-maximal effect; tags give direction and shape of the fitted curve or compound fluorescence and quenching.

Chain of UniProt P37231 (P37231 whole entry, looked up): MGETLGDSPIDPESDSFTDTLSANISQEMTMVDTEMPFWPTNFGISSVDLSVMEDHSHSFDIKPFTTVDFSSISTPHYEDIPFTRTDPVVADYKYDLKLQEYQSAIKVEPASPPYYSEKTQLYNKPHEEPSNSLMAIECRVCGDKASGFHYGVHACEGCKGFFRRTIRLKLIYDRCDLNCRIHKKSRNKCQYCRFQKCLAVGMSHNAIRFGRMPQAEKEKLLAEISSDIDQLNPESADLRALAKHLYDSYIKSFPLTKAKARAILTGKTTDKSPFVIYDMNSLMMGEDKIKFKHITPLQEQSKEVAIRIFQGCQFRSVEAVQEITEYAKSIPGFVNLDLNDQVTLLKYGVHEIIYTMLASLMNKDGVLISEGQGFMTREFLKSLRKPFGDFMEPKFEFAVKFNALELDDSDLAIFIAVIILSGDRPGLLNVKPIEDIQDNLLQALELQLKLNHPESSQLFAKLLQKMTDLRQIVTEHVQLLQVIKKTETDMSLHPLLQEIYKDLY
Chain of UniProt P11473 (P11473 whole entry, looked up): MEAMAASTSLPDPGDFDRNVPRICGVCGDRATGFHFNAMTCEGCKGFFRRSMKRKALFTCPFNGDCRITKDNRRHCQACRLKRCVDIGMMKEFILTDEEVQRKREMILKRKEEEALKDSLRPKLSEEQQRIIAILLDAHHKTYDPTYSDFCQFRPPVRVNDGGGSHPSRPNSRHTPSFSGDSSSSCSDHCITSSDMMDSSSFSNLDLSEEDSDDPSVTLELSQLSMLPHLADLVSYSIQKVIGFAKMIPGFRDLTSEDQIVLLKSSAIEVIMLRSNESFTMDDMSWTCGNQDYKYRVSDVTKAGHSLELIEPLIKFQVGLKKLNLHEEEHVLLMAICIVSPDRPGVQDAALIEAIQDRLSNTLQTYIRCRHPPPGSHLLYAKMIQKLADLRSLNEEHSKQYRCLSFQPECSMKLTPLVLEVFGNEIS
Chain of UniProt Q96RI1 (Q96RI1 whole entry, looked up): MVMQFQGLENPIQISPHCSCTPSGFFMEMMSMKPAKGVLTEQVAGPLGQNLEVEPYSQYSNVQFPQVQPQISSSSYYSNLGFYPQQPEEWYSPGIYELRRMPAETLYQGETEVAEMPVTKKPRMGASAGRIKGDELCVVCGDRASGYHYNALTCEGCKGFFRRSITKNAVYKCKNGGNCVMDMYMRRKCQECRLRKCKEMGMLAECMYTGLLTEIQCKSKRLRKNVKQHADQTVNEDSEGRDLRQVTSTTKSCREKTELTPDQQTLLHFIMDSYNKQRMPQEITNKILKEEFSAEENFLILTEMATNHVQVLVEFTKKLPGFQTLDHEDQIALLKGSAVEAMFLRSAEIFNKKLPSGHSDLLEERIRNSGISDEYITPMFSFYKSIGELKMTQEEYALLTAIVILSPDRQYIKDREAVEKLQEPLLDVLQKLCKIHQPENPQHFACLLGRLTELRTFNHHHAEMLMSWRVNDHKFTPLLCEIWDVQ
Chain of UniProt Q03181 (Q03181 whole entry, looked up): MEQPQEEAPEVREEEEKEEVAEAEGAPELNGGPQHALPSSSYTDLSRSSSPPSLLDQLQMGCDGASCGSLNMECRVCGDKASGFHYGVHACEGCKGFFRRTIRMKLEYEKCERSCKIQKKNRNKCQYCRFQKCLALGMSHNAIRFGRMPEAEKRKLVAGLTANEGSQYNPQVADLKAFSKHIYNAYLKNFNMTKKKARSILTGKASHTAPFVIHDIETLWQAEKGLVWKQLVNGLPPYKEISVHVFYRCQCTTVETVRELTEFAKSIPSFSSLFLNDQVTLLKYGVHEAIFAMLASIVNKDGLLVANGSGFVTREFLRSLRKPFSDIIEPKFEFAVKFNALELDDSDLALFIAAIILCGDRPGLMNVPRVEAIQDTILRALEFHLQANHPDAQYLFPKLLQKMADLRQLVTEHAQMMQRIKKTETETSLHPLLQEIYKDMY

CCOC(=O)c1cncn1C(C)c1ccccc1 (stereo not drawn)
Potency [1]: inactive | Potency [2]: inactive | Potency [3]: inactive | Potency [4]: inactive

CC(C)NCC(O)c1ccccc1Cl (stereo not drawn)
Potency [1]: inactive | Potency [2]: inactive | Potency [5]: inactive

C[C@H]1CCC[C@H](O)CCCCCc2cc(O)cc(O)c2C(=O)O1
Potency [1]: inconclusive: 62.1 µM | Potency [2]: inconclusive: 43.6 µM [rising, partial curve, poor fit] | Potency [6]: inconclusive: 0.155 µM [rising, full curve, poor fit] | Potency [3]: inconclusive: 49.3 µM [activator, partial curve] | Potency [4]: inactive

CC/C(=N\OC/C=C/Cl)C1=C(O)CC(C2CCOCC2)CC1=O (stereo not drawn)
ratio activity, negative = inhibition [1]: inconclusive: -10.6% | Potency [2]: inactive | Potency [4]: inconclusive: 61.6 µM [rising, partial curve, poor fit] | Potency [7]: inactive

ClCC1CO1 (stereo not drawn)
Potency [1]: inactive | Potency [2]: inactive | Potency [8]: inconclusive: 1.88 µM [rising, full curve, poor fit]

O=S(=O)(O)OOS(=O)(=O)O
ratio activity, negative = inhibition [1]: inconclusive: 23.4% | Potency [2]: inactive | Potency [4]: inactive | Potency [5]: inconclusive: 4.91 µM [cytotoxic, full curve, poor fit] | viability change, negative = cytotoxic [5]: inconclusive: -15.4% [cytotoxic] | Potency [9]: inconclusive: 0.0245 µM [fluorescent, full curve, poor fit] | activity change, negative = inhibition [10, 17]: inconclusive: 21.6% | activity change, negative = inhibition ([10]; at 61 µM (top of the series)): inactive: 3.51% and inactive: -19.5% | activity change, negative = inhibition ([10]; at 78.8 µM (top of the series)): inactive: -0.573%

CCC(C)(CC)c1cc(NC(=O)c2c(OC)cccc2OC)on1
Potency [1]: inconclusive: 37.4 µM [inhibitor, partial curve] | Potency [2]: inconclusive: 68.8 µM | activation [2]: inconclusive: 8.91% | Potency [11]: inconclusive: 55.1 µM [cytotoxic, partial curve, poor fit] | Potency [5]: inconclusive: 0.529 µM [cytotoxic, single point] | Potency [9]: active: 55.1 µM

CCOC(=O)CCN(SN(C)C(=O)Oc1cccc2c1OC(C)(C)C2)C(C)C
Potency [1]: inconclusive: 6.16 µM [rising, full curve, poor fit] | Potency [2]: inactive | Potency [3]: inconclusive: 57.1 µM

ClCBr
Potency [1]: inactive | activation [2]: inconclusive: -1.04% [at 94.8 µM] | Potency [8]: inactive | Potency [9]: inactive | Potency [12]: inactive | Potency [10, 17]: inconclusive: 0.0013 µM [activator, full curve, poor fit]

CC(=O)[C@H]1CC[C@H]2[C@@H]3CC[C@H]4C[C@](C)(O)CC[C@]4(C)[C@H]3CC[C@]12C
ratio activity, negative = inhibition [1]: inconclusive: 1.74% | activation [2]: inconclusive: 21.3% | Potency [11]: inactive | Potency [4]: inactive

C#C[C@]1(O)CC[C@H]2[C@@H]3CCC4=CC(=O)CCC4=C3C=C[C@@]21CC
ratio activity, negative = inhibition [1]: inconclusive: 15.1% | Potency [2]: inconclusive: 37.6 µM [rising, partial curve, poor fit] | Potency [4]: inconclusive: 26.6 µM [rising, partial curve] | ratio activity, negative = inhibition [9]: inconclusive: 14.5% | Potency [12]: inconclusive: 16.8 µM [rising, partial curve, poor fit] | Potency [13]: inconclusive: 23.7 µM [rising, partial curve] | Potency [14]: inconclusive: 29.8 µM [activator, partial curve] | Potency [15]: inconclusive: 26.6 µM [rising, partial curve, poor fit] | Potency [10, 17]: inconclusive: 23.9 µM [fluorescent, partial curve, poor fit]

C=CCOC(Cn1ccnc1)c1ccc(Cl)cc1Cl (stereo not drawn)
Potency [1]: inconclusive: 15.5 µM [inhibitor, partial curve, poor fit] | Potency [2]: inconclusive: 54.6 µM | activation [2]: inconclusive: 21.6% and inconclusive: 23.9% | Potency [6]: inconclusive: 68.8 µM [cytotoxic, single point] | activity change, negative = cytotoxicity [8]: inconclusive: -41.5% [cytotoxic] | Potency [5]: inconclusive: 61.8 µM [cytotoxic, partial curve, poor fit] and inconclusive: 61.6 µM [cytotoxic, single point] | Potency [13]: inconclusive: 55.1 µM [cytotoxic, single point] | Potency [7]: inconclusive: 55.1 µM [cytotoxic, single point] | Potency [16]: inactive and inconclusive: 7.76 µM [cytotoxic, single point]

COC1CC(=C(c2cccs2)c2cccs2)C[N+](C)(C)C1 (stereo not drawn)
Potency [1]: inactive | Potency [2]: inactive

O=C(NC(=O)c1c(F)cccc1F)Nc1ccc(OC(F)(F)C(F)OC(F)(F)F)c(Cl)c1 (stereo not drawn)
ratio activity, negative = inhibition [1]: inconclusive: 29.7% | activation [2]: inconclusive: 31.4% | Potency [3]: inconclusive: 26.8 µM | activation [4]: inconclusive: 5.97%

CC1COC2(c3ccccc3Cl)c3cc(Cl)ccc3NC(=O)CN12 (stereo not drawn)
Potency [1]: inactive | activation [2]: inconclusive: 20.3%
